Measured values as given in PubChem BioAssay AID1240 (Sanford-Burnham Center for Chemical Genomics, 2008).
Where “and” joins values, the source holds several entries; their conditions need not be identical. Equal entries are not always repeated. About 800 (1.6%) of roughly 50,000 compounds showed an effect of 50% or more. The list shows a part of the results.

These molecules were tested against Bcl-2-like protein 10 (Homo sapiens) (UniProt Q9HD36) (assay: TR3 peptide-Bcl-B binding displacers, biochemical primary FP assay, phenotype converters (AID 1240;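 also: 0% = Bcl-B with tracer peptide and DMSO and 100% = tracer peptide lacking Bcl-B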)). Settings: GST-Bcl-B / FITC-TR3 peptide fluorescence polarization; stronger effect = higher value; compound at 3.75 mg/L.
Chain of UniProt Q9HD36 (Q9HD36 whole entry, looked up): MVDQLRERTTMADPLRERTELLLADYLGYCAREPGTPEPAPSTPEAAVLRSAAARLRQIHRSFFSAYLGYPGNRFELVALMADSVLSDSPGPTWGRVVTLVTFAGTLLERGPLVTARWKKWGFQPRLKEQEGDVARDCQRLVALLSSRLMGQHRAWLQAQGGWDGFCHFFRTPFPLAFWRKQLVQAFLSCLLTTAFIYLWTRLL

In order of falling displacement:
1. CCC1S/C(=N\N=C\c2cccc3ccccc23)NC1=O (stereo not given)  127%
2. C=CCN1C(=O)/C(=C/c2cc(C)n(-c3ccc(C(=O)OC)cc3)c2C)SC1=S  109%
3. COc1cc(/C=C2\SC(=S)N(CC(C)C)C2=O)ccc1O  91.5%
4. N#CCn1cc(/C=C(/C#N)C(=O)Nc2cccc(Br)c2)c2ccccc21  45.9%
5. CC1(C)CC(=O)C(=Cc2cn(-c3ccccc3)nc2-c2ccc(Cl)cc2)C(=O)C1  28.2%
6. Cc1ccc(NC(=O)OCC2c3ccccc3-c3ccccc32)cc1  18.9%
7. O=C1C(=O)N(c2nccs2)C(c2cccs2)/C1=C(\O)c1ccc(Cl)cc1 (stereo not given)  17.2%
8. C=CCN1C(=O)/C(=C/c2cccc([N+](=O)[O-])c2)C(=O)NC1=S  17.1%
9. O=[N+]([O-])c1ccccc1N/C(=N/S(=O)(=O)c1ccc(Cl)cc1)c1ccccc1  17.1%
10. Cc1ccc(OCc2nc(-c3ccc([N+](=O)[O-])cc3)no2)c(Br)c1  16.4%
11. O=C1N=c2ccc(Br)cc2=C1c1sc(Nc2ccc(O)cc2)nc1O  16.4%
12. O=C(CCc1ccccc1)NCc1ccc2c(c1)OCO2  14.7%
13. Cc1ccccc1N1C(=O)/C(=C\c2cccs2)SC1=S  14.2%
14. O=c1[nH]n(Cc2ccccc2)c2ccccc12  14.2%
15. CCOC(=O)c1c(N)sc(C(=O)Nc2cccc(Cl)c2)c1C  14.1%
16. O=C(O)CCCc1nc2ccccc2s1  13.3%
17. CC/C(=N\N=C(/CC)c1ccccc1N)c1ccccc1N  13.2%
18. COc1ccccc1CC1S/C(=N\N=C\c2cccc([N+](=O)[O-])c2)NC1=O (stereo not given)  12.9%
19. Cc1c(C#N)c2ncn(Cc3ccccc3)c(=O)c2n1-c1ccccc1  12.4%
20. CCOC(=O)C1CCN(S(=O)(=O)c2ccc(-c3ccc([N+](=O)[O-])cc3)cc2)CC1  12.4%
21. O=C1OC2C=CC=CC2C=C1C(=O)N1CCSC1c1ccc2c3c(cccc13)CC2 (stereo not given)  11.9%
22. Cc1oc2ccc(OCc3cccc(Cl)c3)cc2c1C(=O)O  11.3%
23. COC(=O)CN1C(=O)/C(=C\C=C\c2ccccc2)SC1=S  10.8%
24. COCCOC(=O)c1c(C)oc2ccc(OC(=O)c3ccc([N+](=O)[O-])o3)cc12  10.3%
25. O=C(COC(=O)c1cccc(N2C(=O)CCC2=O)c1)c1ccccc1  10.2%
26. O=C(Nc1ccc2nn(-c3ccccc3)nc2c1)c1cccc(F)c1  10.1%
27. O=CN1CCN(C(=O)COc2ccc3ccccc3c2)CC1  10.1%
28. Cc1ccc(S(=O)(=O)N2CCN(CCNC(=O)C(=O)Nc3ccc(Br)cc3)CC2)cc1  10%
29. O=C(/C=C\Nc1ccccc1[N+](=O)[O-])c1ccc2c(c1)OCO2  9.4%
30. Cc1ccccc1NC(=O)C(=O)NCc1ccccc1  9%
31. CCOc1ccc(NC(=S)NC(=O)COc2ccccc2)cc1  8.9%
32. CCc1sc(NC(=O)COc2ccccc2)c(C(N)=O)c1C  8.8%
33. CCN1C(=O)C(=Cc2ccc(O)cc2)C(=O)NC1=S  8.3%
34. CNC(=O)C(=O)Nc1c(C)cccc1C  7.9%
35. Cc1ccc(/C(O)=C2\C(=O)C(=O)N(CCCC(=O)O)C2c2ccc(C)cc2)cc1 (stereo not given)  7.8%
36. COc1ccc(C=Nc2ccc3c(c2)nc(C)n3C)cc1  7.5%
37. C=CCSc1nc(C)c2cc(OCC)ccc2n1  7.4%
38. O=C1S/C(=C/c2ccccc2F)C(=O)N1CNc1ccccc1Cl  7.1%
39. CCC(C(=O)n1nnc2ccccc21)c1ccccc1 (stereo not given)  6.8%
40. Cc1cc2nc(-c3cccc(NC(=O)COc4ccccc4[N+](=O)[O-])c3)oc2cc1C  6.8%
41. COc1ccc(/C=C2\SC(=Nc3cccc(Cl)c3C)NC2=O)c(OC)c1  6.8%
42. CC(=O)N(C)c1ccc(N=Cc2c(C)[nH]c3ccccc23)cc1  6.4%
43. CCc1ccc(N2C(=O)NC(=O)/C(=C\c3cc(C)n(-c4cccnc4)c3C)C2=O)cc1  6.3%
44. Cc1cnn(-c2cc(N/N=C/c3ccccc3F)ncn2)c1  5.9%
45. O=C1c2cccc3c(N4CCCCC4)ccc(c23)C(=O)N1c1ccc(Cl)cc1  5.7%
46. COc1ccc(-n2nc3cc(C)c(N)cc3n2)cc1  5.6%
47. CCN(CC)S(=O)(=O)c1ccc(C(=O)Nc2sc3c(c2C(N)=O)CCCC3)cc1  5.2%
48. CCOc1ccc(S(=O)(=O)N(CC(=O)Nc2ccccc2CC)c2ccc(C)cc2)cc1  4.9%
49. CC(C)(C)c1cc(/C=N/Nc2nnc3c(n2)[nH]c2ccccc23)cc(C(C)(C)C)c1O  4.8%
50. O=C(Cc1ccc(F)cc1)NCCc1ccccc1  4.6%
51. COc1cccc(N2C(=O)C(=O)/C(=C(\O)c3ccccc3)C2c2ccccc2)c1 (stereo not given)  4.5%
52. COc1ccc(C(C)NC(=O)CN(c2ccccc2C)S(=O)(=O)c2ccc(C)cc2)cc1 (stereo not given)  4.5%
53. Cc1cc(NC(=O)CSc2nnc3c4ccccc4n(C)c3n2)no1  3.9%
54. CN(C)c1cc(N/N=C/c2cccc([N+](=O)[O-])c2)nc(N(C)C)n1  3.9%
55. CCOc1cc(C(=O)Nc2ccc(OC)cc2)cc(OCC)c1OCC  3.7%
56. COCCNC(=O)CN(c1ccc(OC)cc1OC)S(=O)(=O)c1ccccc1[N+](=O)[O-]  2.6%
57. Cc1ccc(-c2csc(NC(=O)c3sc4ccccc4c3Cl)n2)c(C)c1  2.6%
58. CSc1ccccc1NC(=O)CC1Sc2ccccc2NC1=O (stereo not given)  2.5%
59. COC(OC)C12c3ccccc3C(c3ccccc31)C1C(=O)N(Cc3ccco3)C(=O)C12 (stereo not given)  2.5%
60. COc1ccc(-c2csc(/C(C#N)=C\c3sccc3C)n2)cc1  1.8%
61. COc1cccc(-c2cc(C(=O)Nc3ccc(S(=O)(=O)Nc4nccc(C)n4)cc3)c3ccccc3n2)c1  1.3%
62. Cc1ccccc1CNC(=O)c1cccc(Cl)c1  1.1%
63. CCCCCCCCC(=O)N/N=C/c1ccsc1C  0.8%
64. Cc1cccc(OCc2nnc(N)s2)c1  0.8%
65. O=C(Nc1cc(Sc2ccccc2)cc([N+](=O)[O-])c1)c1ccc(F)c(F)c1  0.6%
66. CC1=C(C(=O)OCCc2ccccc2)C(c2ccc([N+](=O)[O-])cc2)NC(=O)N1C (stereo not given)  0.4%
67. O=C(O)CN1C(=O)/C(=N/N2C(=O)CSC2=S)c2ccccc21  0.4%
68. CCOC(=O)CP(=O)(c1ccccc1)c1ccccc1  0.4%
69. COc1ccc(C2CC(=O)C3=C(C2)Nc2ccccc2NC3c2ccc(C)o2)cc1 (stereo not given)  0.2%
70. O=C(O)CCCNS(=O)(=O)c1ccc(NCc2ccccc2)c(C(=O)O)c1  0.1%
71. NS(=O)(=O)c1ccc(NC(=O)CCCN2C(=O)/C(=C/c3ccc(Cl)cc3)SC2=S)cc1  -0.5%
72. O=C(NC(=S)NCc1ccco1)c1ccc([N+](=O)[O-])cc1  -1%
73. CCOC(=O)c1c(NC(=O)/C=C\C(=O)O)sc2c1CCC(CC)C2 (stereo not given)  -1.1%
74. CCc1ccccc1NC(=O)C(=O)NCC(C)O (stereo not given)  -1.3%
75. Cc1ccc(C2(c3ccc(C)cc3)CC2C(=O)NC(C)(C)C)cc1 (stereo not given)  -1.3%
76. COc1ccc(C2CC(C(F)(F)F)n3ncc(C(=O)Nc4ccc(F)cc4F)c3N2)cc1OC (stereo not given)  -1.7%
77. NC(=O)C1CCN(C(=O)c2ccccc2Br)CC1  -2.2%
78. Cc1cc(NC(=O)C2CCCCC2)cc(C)c1O  -2.7%
79. COc1ccc(Br)cc1C(=O)Nc1ccc(Cc2ccncc2)cc1  -3.3%
80. COc1ccc(NC(=O)C(NC(=O)c2ccc(C)cc2)C23CC4CC(CC(C4)C2)C3)cc1 (stereo not given)  -3.3%
81. CCCc1c(C)nc2ccc(C)cc2c1SCC(=O)O  -3.6%
82. CC1=C(C)CC2C(=O)N(c3ccc(Br)cc3)C(=O)C2C1 (stereo not given)  -3.8%
83. C=CCNc1nc(-c2ccc(Cl)cc2)nc2ccccc12  -3.8%
84. OC12CCCCC1C1(O)CCCCC1C1(CCCCC1)O2 (stereo not given)  -4.6%
85. CS(=O)(=O)N(Cc1ccc(C(=O)N2CCCCCC2)cc1)c1ccccc1  -4.9%
86. CCOc1ccccc1N=CC1=C(O)CC(c2ccccc2)CC1=O (stereo not given)  -5%
87. N/C(=N\OC(=O)C1CCCCC1)c1cccc([N+](=O)[O-])c1  -5.1%
88. COc1ccc(OC)c(C2CC(=O)C(C)C(c3cc(OC)ccc3OC)N2)c1 (stereo not given)  -5.2%
89. CCCN1C(=O)c2ccccc2NC1c1c(Cl)cccc1Cl (stereo not given)  -5.4%
90. Cc1c(OCC(=O)N(C)C)ccc2c3c(c(=O)oc12)CCCC3  -5.8%
91. CCOC(=O)c1nnc2cc(-c3ccc(C)cc3)nn2c1C  -6%
92. O=C(Nc1ccccc1)Nc1ccccc1C(=O)O  -7.2%
93. CC1=C(C(=O)Nc2ccccc2)C(c2ccco2)N2C(=O)CSC2=N1 (stereo not given)  -7.2%
94. CCCS(=O)(=O)c1c(S(=O)(=O)CCC)c2c3ccccc3ccn2c1C(=O)c1ccc(C)cc1  -7.3%
95. C/C(=N\NC(=O)c1cc(C2CC2)[nH]n1)c1ccc(Br)cc1  -7.4%
96. O=C(N/N=C/c1ccc2ccccc2c1)c1cccc(F)c1  -8.5%
97. Fc1ccc(/C=N/N2CCOCC2)cc1  -8.8%
98. COc1ccccc1CNS(=O)(=O)c1ccc(Cl)cc1  -10.2%
99. Cc1ccc2[nH]c(C(=O)N/N=C/c3ccncc3)c(-c3ccccc3)c2c1  -11.1%
100. O=C(NC(=S)Nc1ccc(SC(F)F)cc1)c1cccs1  -11.4%
101. COc1ccc(C2CC(=O)C3=C(C2)Nc2ccccc2NC3c2ccc(Cl)c([N+](=O)[O-])c2)cc1 (stereo not given)  -11.9%
102. COC(=O)C1=C(C)N(CCc2ccccc2)C(=O)C1  -11.9%
103. Cc1cccc(NC(=O)c2ncn[nH]2)c1C  -12.9%
104. CC1=C(C(=O)OCCOc2ccccc2)C(c2cccc(Cl)c2)C2=C(CCCC2=O)N1 (stereo not given)  -12.9%
105. CCOC(=O)C1=C(O)/C(=C/N(C)C)SC1=Nc1ccc([N+](=O)[O-])cc1  -14.8%
106. CCOC(=O)CNS(=O)(=O)c1cc(Cl)ccc1Cl  -15.2%
107. O=C(COc1ccc(Br)cc1)NCc1ccncc1  -15.4%
108. CCOC(=O)C1=C(O)/C(=C/c2ccc(Br)cc2)SC1=Nc1ccccc1  -15.8%
109. CCOC(=O)c1c(N2C(=O)C=CC2=O)sc(C)c1C  -24.5%

With `COc1ccc2c(C)cc(=S)[nH]c2c1` the displacement was 5.8% and -0.9%.
